The source of these data is PubChem BioAssay AID1845195 (Molecular Pharmacology Branch, DTP, NCI, 2023).

A number of entries come with more than one value. This is not the full list of results. An entry can have further records. Results that share an entry repeat one measurement in other runs, samples, wells, individuals or studies.

In the test the test system is 156681-154-R-J1 tumor spheroid viability. Kind of test: Anticancer human tumor 156681-154-R-J1 patient-derived melanoma cell line growth inhibition. The settings on record: stronger effect = lower value, spheroids with HUVEC and MSC. The source says:
Multicellular complex tumor spheroid response to DNA repair inhibitors in combination with DNA-damaging drugs
This study explores the anticancer activities of DNA-damaging drugs and inhibitors of DNA damage repair, both as single agents and in combinations. Complex tumor spheroids comprised of malignant cells, endothelial cells and mesenchymal stem cells served as an in vitro model for human solid tumors. This model system incorporates physiologically relevant features and patient-derived or established malignant cell lines with clinically relevant genetic alterations from many tumor types. Twenty-six patient-derived or established malignant cell lines were evaluated representing sarcoma, melanoma, small cell lung cancer (SCLC), non-small cell lung cancer (NSCLC), as well as bladder, ovarian and pancreatic cancers. The concentration ranges selected for each drug and investigational agent were based upon clinically achievable concentrations if the clinical Cmax of the agent was known.
Compounds. The drugs and compounds olaparib (NSC753686), talazoparib (NSC767125), berzosertib (NSC777718), elimusertib (NSC800525), nedisertib (NSC802822), VX-984 (NSC792969), AZD-1390 (NSC803789), temozolomide (NSC362856), topotecan (NSC609699), trabectedin (NSC813783), staurosporine (NSC755774), and gemcitabine (NSC613327) were obtained from the National Cancer Institute (NCI) Developmental Therapeutics Program Chemical Repository. The FDA-approved anticancer drug set is available from the Developmental Therapeutics Program at https://dtp.cancer.gov/organization/dscb/obtaining/available_plates.htm. […] The stock solutions were prepared in dimethyl sulfoxide (DMSO, Sigma-Aldrich, St. Louis, MO, cat. D2650) at 400-fold the tested concentration and stored at -70 degrees C. Prior to their use, the stock solutions were diluted in fresh medium and the final DMSO concentration in the assay was 0.25% (v/v). All drugs and investigational agents were tested over a range starting from a high concentration at or near the clinical Cmax and decreasing in half-log increments. If the clinical Cmax for an agent had not been determined, the highest concentration tested was 10 microM.
Cell Lines. The patient-derived cancer cell (PDC) lines: 156681-154-R-J1-PDC, 283228-195-R-J1-PDC, 287954-098-R-J1-PDC, 292921-168-R-J2-PDC, 349418-098-R-PDC, 425362-245-T-J1-PDC, 556581-035-R-J1-PDC, and BL0293-F563-PDC were received from the NCI Patient-Derived Models Repository (PDMR, https://pdmr.cancer.gov). The established cell lines HS-SY-2 (RRID:CVCL_8719), MPNST, and SYO-1 (RRID:CVCL_7146) were obtained from the Sloan Kettering Institute. The alveolar soft parts sarcoma cell line ASPS-1 (RRID:CVCL_S738) was established at the NCI and grown from internal seed stocks. The following established cell lines were purchased from the American Type Culture Collection (ATCC, Manassas, VA): G-401 (ATCC, cat. CRL-1441, RRID:CVCL_0270), SW982 (ATCC, cat. HTB-93, RRID:CVCL_1734), VA-ES-BJ (ATCC, cat. CRL-2138, RRID:CVCL_1785), NCI-H719 (ATCC, cat. CRL-5837, RRID:CVCL_1582), NCI-H196 (ATCC, cat. CRL-5823, RRID:CVCL_1509), NCI-H841 (ATCC, cat. CRL-5845, RRID:CVCL_1595), NCI-H1618 (ATCC, cat. CRL-5879, RRID:CVCL_1480), NCI-H1876 (ATCC, cat. CRL-5902, RRID:CVCL_1503), DMS 114 (ATCC, cat. CRL-2066; RRID:CVCL_1174), NCI-H211 (ATCC, cat. CRL-5824; RRID:CVCL_1529), and SW 1271 (ATCC, cat. CRL-2177, RRID:CVCL_1716). […]
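Note: spheroids exposed to compounds for 7 days before readout; percent of vehicle control viability where 100% = DMSO-treated spheroids.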

Turning to `Cn1nnc2c(C(N)=O)ncn2c1=O`, the viability, T/C (commonly the result in the treated group divided by that in the control group, in per cent) was 69.2, 75.5, 83.8, 103, 81.2, 81, 96.9, 62.3, 89.7, 87% (compound alone 3.16 µM); 68.5, 63.8, 83.3, 71.5, 73, 101, 75.9, 59.6, 62.1, 94.1% (compound alone 10 µM); 55, 51.4, 48.2, 48.6, 46.6, 56.8, 74.1, 53.3, 50.4, 54.2% (compound alone 100 µM).

Regarding `CC[C@@]1(O)C(=O)OCc2c1cc1n(c2=O)Cc2cc3c(CN(C)C)c(O)ccc3nc2-1`, the viability, T/C (compound alone 0.003 µM) is 83.8, 102, 95.6, 111, 90.9, 88.8, 100, 95.3, 91.3, 93.5% and the viability, T/C (compound alone 0.03 µM) is given as 60.4, 61, 62.6, 43.8, 58.4, 75.3, 77.9, 62.5, 57.2, 64.7%.
